Assay results published in PubChem BioAssay AID2060499 (Molecular Pharmacology Branch, DTP, NCI, 2025).
Some entries of the source have several records that differ or are many. This list holds those alone. The source may hold further records. The records of an entry are repeated measurements (runs, samples, wells, individuals or studies).

Test system: 777334-354-R2-J4-PDC tumor spheroids with HUVEC/MSC, viability
Test: Anticancer human tumor 777334-354-R2-J4-PDC patient-derived pancreatic adenocarcinoma cell line growth inhibition [GQUAD]
Description: DNA G-quadruplex Stabilizer Agents in Combinations in Complex Spheroids
A high-throughput screen of multi-cell type tumor spheroids was designed to identify active combinations of DNA G-quadruplex stabilizer agents and targeted small molecules. Complex spheroids include a stromal component modeled by human endothelial cells (HUVEC) and fibroblasts modeled by human mesenchymal stem cells (MSCs). The concentration ranges selected for each drug and investigational agent were based upon clinically achievable concentrations if the clinical Cmax of the agent was known.
Compounds. […] If the clinical Cmax for an agent had not been determined, the highest concentration tested was 10 microM. […]
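Also: spheroids exposed to compounds for 7 days before readout.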

Compound: Cc1[nH]c2ccc(F)cc2c1-c1nc2c3cccnc3c3ncccc3c2[nH]1
- viability, T/C (compound alone 10 µM, stronger effect = lower value): 29.6, 29.2, 30, 28.5, 31.9, 34.3, 43.2, 26.7, 58.6, 42.4, 48.7, 48.9%
- IC50 (compound alone, run of 03/26/2024): > 10 µM, 6.11 µM, 8.41 µM, 2.77 µM
